Source: the supplement of paper PMC10126150
Sequences with one replicate were seen in a single cluster, so their values are uncertain.

System: ATP
Test: switch fluorescence ratio, 500 uM ATP over buffer (Cy3 cluster intensity, sum of 5 cycles each) (fold (ratio)); higher = stronger signal-on switching upon ATP binding; sequences stand for … in TCGTCGGCAGCGTCAGATGTGTATAAGAGACAGTTTTTTTTTTTTTTTTTTTTTTTTT…TC
Conditions: aptamer strand: ATP DNA aptamer (quencher-CACCTGGGGGAGTATTGCGGAGGAAGG + anchor), 100 nM annealed; ATP concentration: 500 uM; one replicate
How it was run: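 Cy3-labelled switching-strand clusters on a modified Illumina MiSeq flow-cell were annealed to 100 nM quencher-labelled ATP aptamer and imaged first in selection buffer, then after 15 min with 500 uM ATP at 22 °C. NaOH stripping and re-annealing separated each of five buffer/ATP cycles, and clusters outside 100-1000 RFU were excluded. The fluorescence ratio sums target-cycle Cy3 intensity over buffer-cycle Cy3 intensity per cluster and averages it per switch-domain sequence.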
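Further: ATP exposure 15 min at 22 °C before imaging.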

Sequence	switch fluorescence ratio
CCGATCAGAG	1.29
ATCGTTCGAG	0.982
TGAACGAACG	1.08
TCCCCGACTT	1.05
AGTCAAGTCT	1.07
TCGTGGGAGT	0.984
GCCCGCCCAT	1.13
TTACTGCTT	0.978
TGTAAATA	1.01
AGGTGCTGC	1.02
ATACTAACCC	1.2
CATGGAGTTA	1.04
GGTGCCTTTT	0.98
TCCAATCGAA	1.04
AGGGACTATG	1.01
GCTGAGGGTC	0.99
GTTAATAGTA	1
ACGGTCAAGG	1.03
GCCAATGGTG	1.17
CGGTCACTTT	0.99
CGACGATGGA	1.08
GAACCAGGCT	0.939
TACTCATAGT	0.948

Sequence	switch fluorescence ratio
CGTCATGTTA	1
CTGTGTGCTC	1.1
ATAGTGAAC	0.985
GTGACACCGA	1.04
CGCCTTTCT	1.03
GCCCCCATAA	1.07
AAAATAGCGA	0.922
AACCCCGTGT	1.03
GATTTATCCG	0.987
ACATAAGTA	1.02
TCAGCATTAA	1.6
ATTACAAGTT	0.988
CAGGCCCTCT	1.02
TGTTCCTGTA	0.999
ATCCCGGTCT	0.951
AACGTTGCA	1.02
GCTCTTTTTG	1.01
GCCGAGGATG	0.978
TTAGATGTTG	1
GCTTTCTTGA	1.02
GAGTTCTGCC	1.02
AGGGCGTA	1.03
TTGTTGGTGT	1.01

Sequence	switch fluorescence ratio
CGACCAGGCA	1.1
GATAATGGGC	1.01
GCATTAATCA	1.01
TTAGGCCGTC	0.977
AATGCCTTG	0.992
TCATGAAATG	0.961
ATTTTATCTA	1.02
GCAATGAGCG	1.01
GTGCACGAGG	1
ACAATCTTG	0.916
ACTCCCTCGC	2.18
ATGGAACGTT	0.984
GGTTATCGG	0.942
CGATGATCAG	0.986
CTCTGACT	1.02
ATATGTGAT	1.03
AAACAGACGA	1.25
GAGTCGCCAA	1.03
TATTTCAGGC	1.01
GTATAATGA	1
AGGACGTGTT	1
AACAACGGAA	1.07
GCGCACGGTT	1.13

Sequence	switch fluorescence ratio
TCTTAAGTGT	1
AGGCTTCCGG	1.1
AGCATTCCCC	1.06
CGCACCTAAG	1.14
TAAATTGCCT	0.985
GAACGCGGGG	1.01
CAATCTGTAC	1.09
GACTCAGGTG	2.79
TCTGACCCTG	0.971
TACAAATAGT	1.2
CAATTGTCCG	1.01
AGTATAAAGA	1
AGGATGGTGC	1.01
TTACTAGCTC	1.01
GGTATCTGAA	1.02
GGATGGGTTC	0.973
GTTTAAGAGA	1.02
ATGAACGGTA	0.976
GAGCGGTGAT	1.01
TAGATTGTAG	0.977
TCTCGGGCAA	6.84
CTAGGTAGTT	1.02
GTTAGTAATA	0.997

Sequence	switch fluorescence ratio
CAAGAGGCTC	0.98
AGGCTGAA	1.02
TTTCGCTTTA	1.02
TACTTTTGGC	1.06
GCCCCAAACG	0.998
CATTGGTGTA	1.01
TGCAATGCCA	0.978
ATTCTGATAC	1.17
GGGAAGGATA	0.991
CCGTCATAT	2.2
CACTTGACAA	1.05
TTGTAATACG	1.17
AGAGATAAGC	1.02
AGTATACGGA	0.98
TGTATTGCCC	1.01
ACAAGTTTAC	0.967
GGTAGTAGGG	0.943
AACCGGCTG	1.06
TAAATGAACA	1.03
TAGATTCGCA	1.01
GTGTTTGATA	1
ACGTACTTAA	1.41
TTTTGCCCTT	1.02

Sequence	switch fluorescence ratio
AAAAGTATAG	1.11
TCTGTCCAAA	0.983
CCCCTTGTAC	1.72
GTTACACAGC	1.02
AAAGGGCATA	1.22
GATGATTCTA	1.02
TGTTGTACGC	1
AGGTCATAGC	0.976
CGTACACAAT	2.07
TGCGGTTTGG	1.01
CTCCATCTGA	1
TAAGGCTAAG	1
AAGCATTTGG	1.03
TTCCGCC	1.9
TACTCTGGCG	1.03
TTCCCCTAAT	1.08
TTTCTACTCA	0.981
AATTATTGAC	1.05
ATCATACATA	1.03
CATCGGAAAG	1.01
ACAGTTTATC	1.03
AACTATACCA	1.21
GTGGTAAGCC	1

Sequence	switch fluorescence ratio
AGGCACTGGG	1.02
GGTTCGAGGA	0.984
CTGAGCGGGG	1.04
CTATTAGACA	0.962
CACCAGGGAC	1.2
TTAAACTCAG	1
CCCGAGGTCA	1
AAGCGGGTG	1.02
AGGCTCAACT	1
TGCAGGCCTG	0.998
GGAATGCCCT	0.999
CTAGGGGTCA	0.995
TCAGAGGATG	0.996
TCTAGCGTTT	1.02
CGCGGAAAGG	1.02
ACCAATGGG	0.977
CAAACGGAGG	0.967
TCAGGGTTCG	0.955
GGGCGGCGCG	0.995
GAGATAAATC	1.03
